Out of some 55,000 compounds screened, about 530 (0.96%) were called active. This list was built around the results that the source calls inconclusive (neither active nor inactive); the mix of calls is not that of the screen. Calls come from the whole dose curve; as a rule, active = well fitted cell-killing curve with a large enough effect; inconclusive = small, poorly fitted or top-dose-only effect; inactive = no such curve, though single readings can be large or run the other way. A potency beside an inconclusive call is a rough fit, not a confirmed value.
Experiment: qHTS Screen for Compounds that Selectively Target Cancer Cells with p53 Mutations: Cytotoxicity of p53 Null Cells at the Nonpermissive Temperature; note: nearly all actives have a fitted effect of over 50% in size
Conditions: H1299 p53-null (neo) cells, 39C, ATPlite viability, 24 h; series mostly up to 46.1 µM
Method in brief: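 Luminescent ATP signal reported cell survival after H1299 lines (neo, p53 null; or p53 A138V) received up to 46 uM compound and 24 hr incubation at 39C.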
For `CCOc1ccc(C(=O)NCCc2csc(-c3cccnc3)n2)cc1`, the Potency was inconclusive: 11.2 µM [cytotoxic, partial curve, poor fit].
In the case of `CCN1CCN(c2cc(C)c3cc(NC(=O)/C=C/c4ccc(OCCC(C)C)cc4)ccc3n2)CC1`, the Potency is reported as inconclusive: 0.02 µM [cytotoxic, full curve].
For `O=C(COc1ccccc1Cl)Nc1nc(-c2ccc(F)cc2)ns1`, the Potency was inconclusive: 2 µM [cytotoxic, partial curve].
For `O=C(NCc1cccc(F)c1)c1ccc2nc(CCc3ccccc3)oc2c1`, the Potency was inconclusive: 0.251 µM [cytotoxic, full curve].
For `O=C(Nc1cccc(NC(=O)c2ccc(Br)cc2)c1)c1ccccc1`, the Potency was inconclusive: 0.1 µM [cytotoxic, full curve, poor fit].
In the case of `CCCn1c(NCc2ccccc2F)nc2ccccc21`, the Potency is reported as inconclusive: 5.01 µM [cytotoxic, full curve, poor fit].
With `CCc1cccc(NC(=O)Cn2nc(C)c3sc4ccccc4c3c2=O)c1` the Potency was inconclusive: 20 µM [cytotoxic, single point].
For `COc1ccc(Cn2c(C(=O)O)c(CNCc3ccc(C)o3)c3ccc(OC)cc32)cc1`, the Potency was “inactive”.
In the case of `CCOc1ccc(NC(=O)c2ccc3nc(C(C)C)oc3c2)cc1`, the Potency is reported as inconclusive: 0.126 µM [cytotoxic, full curve, poor fit].
In the case of `CC(/C=N/Nc1nc2ccccc2[nH]1)=C\c1ccccc1`, the Potency is reported as inconclusive: 15.8 µM [cytotoxic, single point].
In the case of `CCc1ccc(CNC(=O)C2COc3ccccc3C2)cc1` (centres undefined), the Potency is reported as inconclusive: 0.158 µM [cytotoxic, full curve, poor fit].
In the case of `COc1ccc(C(=O)N2CCN(c3nc4c(OC)cccc4s3)CC2)cc1OC`, the Potency is reported as “inactive”.
In the case of `O=C(CSc1nc2ccsc2c(=O)n1-c1ccc(Br)cc1)NCc1ccc(Cl)cc1`, the Potency is reported as “inactive”.
For `O=C(Cn1cc(S(=O)(=O)Cc2ccccc2F)c2ccccc21)Nc1ccc(F)c(Cl)c1`, the Potency was inconclusive: 15.8 µM [cytotoxic, single point].
With `COc1ccc2ncc3c(-c4ccc(C)c(C)c4)nn(CC(=O)Nc4ccccc4)c3c2c1` the Potency was inconclusive: 15.8 µM [cytotoxic, single point].
In the case of `O=C(NCCc1ccccc1Cl)c1cc2ccccn2n1`, the Potency is reported as inconclusive: 10 µM [cytotoxic, partial curve].
In the case of `COC(=O)c1c(NC(=O)c2cc(=O)c3cc(C)cc(C)c3o2)sc2c1CCC2`, the Potency is reported as inconclusive: 0.794 µM [cytotoxic, full curve, poor fit].
For `CCc1ccc(C(=O)c2cn(CC(=O)Nc3ccc4c(c3)OCO4)c3ccc(Cl)cc3c2=O)cc1`, the Potency was inconclusive: 31.6 µM [cytotoxic, single point].
In the case of `COc1cccc(C(=O)Nc2nnc(C(C)C)s2)c1`, the Potency is reported as “inactive”.
With `COc1ccc(OCC(=O)N2CCN(C(=O)c3ccc(OC)c(OC)c3)CC2)cc1` the Potency was inconclusive: 3.98 µM [cytotoxic, partial curve].
For `Cc1cc(C)cc(NCc2nnc3n2CCCCC3)c1`, the Potency was “inactive”.
With `O=C(NCCc1nc2ccccc2n1Cc1ccc(Cl)cc1)c1ccccc1` the Potency was “inactive”.
For `COc1cccc(CNCc2c(C(=O)O)n(Cc3ccc(C)cc3)c3cc(C)ccc23)c1OC`, the Potency was inconclusive: 10 µM [cytotoxic, single point].
In the case of `COc1ccc(OC)c(NC(=O)c2nnn(CC(=O)Nc3ccc(C(C)C)cc3)c2N)c1`, the Potency is reported as inconclusive: 11.2 µM [cytotoxic, partial curve].
In the case of `CCCS(=O)(=O)Nc1cccc(-c2cn3ccsc3n2)c1`, the Potency is reported as “inactive”.
With `CCC(=O)NCCc1sc2nc(-c3ccc(OC)cc3)nn2c1C` the Potency was inconclusive: 15.8 µM [cytotoxic, single point].
With `COc1ccc(C2CC(=O)Nc3c2c(C)nn3-c2nc(C)cc(C)n2)c(OC)c1OC` (centres undefined) the Potency was inconclusive: 0.0794 µM [cytotoxic, full curve, poor fit].
In the case of `COc1ccc(-c2nc3cc(NC(=O)COc4ccc(F)cc4)ccc3o2)cc1`, the Potency is reported as inconclusive: 0.251 µM [cytotoxic, full curve, poor fit].
With `CCOC(=O)c1cccc(NS(=O)(=O)c2cc(Br)cc3c2N(C(=O)C2CC2)CC3)c1` the Potency was “inactive”.
In the case of `CCCN1C(=O)C(Cc2nc3ccccc3c(=O)n2CC)c2cc(Br)ccc21` (centres undefined), the Potency is reported as inconclusive: 5.62 µM [cytotoxic, full curve, poor fit].
With `Cc1oc(-c2cccc(Br)c2)nc1Cn1c(SCc2cccc(F)c2)nc2cccnc21` the Potency was “inactive”.
With `CC(=O)Nc1ccc(NC(=O)c2ncoc2-c2ccco2)cc1` the Potency was inconclusive: 7.94 µM [cytotoxic, partial curve].
For `CCCCN(C)CCNC(=O)c1cc(-c2ccc(Cl)s2)nc2ccccc12`, the Potency was active: 12.6 µM.
For `CCC(CC)C(=O)N1CCc2cc(OC)c(OC)cc2C1COc1ccc(F)cc1` (centres undefined), the Potency was “inactive”.
In the case of `CC(=O)N1c2ccccc2CC1C(=O)N1CCN(c2cc(Cl)ccc2C)CC1` (centres undefined), the Potency is reported as inconclusive: 0.355 µM [cytotoxic, full curve].
With `COc1cccc(CNC(=O)CSc2nnc(C)c3c(C)n(-c4ccccc4)nc23)c1` the Potency was inconclusive: 12.6 µM [cytotoxic, single point].
In the case of `Cc1cc(C)cc(N(CC(=O)Nc2ccc(C)cc2Cl)S(=O)(=O)c2c(C)[nH]c(=O)[nH]c2=O)c1`, the Potency is reported as “inactive”.
In the case of `O=c1c(NCCc2ccc(Cl)cc2)nccn1-c1ccccc1`, the Potency is reported as “inactive”.
In the case of `COc1ccc(-c2cn3nc(SCC(=O)Nc4ccccc4F)ccc3n2)cc1`, the Potency is reported as inconclusive: 6.31 µM [cytotoxic, full curve].
With `CCCCNC(=O)c1cnn2c(C)c(Cc3c(C)cc(C)cc3C)c(C)nc12` the Potency was “inactive”.
In the case of `Cc1nc2ccccc2n1/C(=N/S(=O)(=O)c1ccc(Br)cc1)c1ccccc1`, the Potency is reported as “inactive”.
For `Cc1csc2nc(-c3cccc(NC(=O)c4ccccc4Cl)c3)cn12`, the Potency was inconclusive: 15.8 µM [cytotoxic, single point].
For `COc1ccc(C(=O)COC(=O)c2cccc(NC(=O)c3ccc(OC)c(OC)c3)c2)cc1`, the Potency was inconclusive: 17.8 µM [cytotoxic, single point].
For `Cc1ccc(C)c(NC(=O)Cn2c(=O)n(Cc3ccco3)c(=O)c3oc4ccccc4c32)c1`, the Potency was “inactive”.
Potency is the fitted concentration of half-maximal effect; tags give direction and shape of the fitted curve.
